Screen size: about 200,000 compounds; about 4,500 (2.2%) were called active. Inconclusive results, whose numbers are uncertain, are shown with a selection of clear calls. Calls come from the whole dose curve; as a rule, active = well fitted inhibition curve with a large enough effect; inconclusive = small, poorly fitted or top-dose-only effect, or effect the other way; inactive = flat fitted curve, though single readings scatter. Potencies beside an inconclusive call are fits to weak or partial responses and may not hold up.
Each compound was assayed against Cruzipain (Trypanosoma cruzi) (UniProt P25779) (assay: qHTS Assay for Promiscuous and Specific Inhibitors of Cruzain (without detergent)). Details: purified cruzain, Z-FR-AMC fluorescence, no detergent.
Outline: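 Purified cruzain at 1.5 nM, pre-incubated 15 min with compound at room temperature in 100 mM sodium acetate pH 5.5, 5 mM DTT, 0.00005% Triton X-100. Reaction started with 2 uM Z-FR-AMC; AMC fluorescence increase over 60 s gives rate.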
Note: nearly all actives have a fitted effect of over 40% in size.
Potency is the fitted concentration of half-maximal effect; tags give direction and shape of the fitted curve.
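Throughout, for max response, negative = inhibition: plate controls were enzyme without inhibitor for no effect and buffer without enzyme for full effect.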

Sequence of UniProt P25779 (P25779 whole entry, looked up): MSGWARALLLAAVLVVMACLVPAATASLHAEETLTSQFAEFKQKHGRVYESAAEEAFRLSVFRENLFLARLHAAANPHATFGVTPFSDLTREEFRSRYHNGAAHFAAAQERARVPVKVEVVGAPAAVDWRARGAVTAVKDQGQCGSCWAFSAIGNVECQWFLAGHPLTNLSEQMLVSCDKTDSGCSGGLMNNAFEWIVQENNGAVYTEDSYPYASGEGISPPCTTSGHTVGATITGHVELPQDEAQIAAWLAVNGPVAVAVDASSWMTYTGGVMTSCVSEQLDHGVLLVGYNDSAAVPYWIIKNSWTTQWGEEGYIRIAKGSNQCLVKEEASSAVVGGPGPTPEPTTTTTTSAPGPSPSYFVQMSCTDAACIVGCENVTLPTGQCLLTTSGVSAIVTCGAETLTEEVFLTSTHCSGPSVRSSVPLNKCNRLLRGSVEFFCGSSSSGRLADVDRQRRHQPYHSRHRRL

Row | SMILES | max response, negative = inhibition | Potency
1 | COc1ccc(S(=O)(=O)Nc2ccc3c(c2)OCCO3)cc1Cl | inactive: -10.5% | 
2 | CCCCn1c(=S)[nH]c2c(oc3ccc(Cl)cc32)c1=O |  | inconclusive: 31.6 µM [inhibitor, single point]
3 | COc1ccccc1Oc1nc(-c2ccccc2)cc(C)c1S(C)(=O)=O | inactive: -6.53% | 
4 | CCc1ccc(NC(=O)CCn2c(=O)oc3ccccc32)cc1 |  | active: 1.26 µM
5 | Cc1cc(C)cc(OC(=O)c2cc(-c3ccc(Cl)cc3)on2)c1 | inactive: -1.51% | 
6 | CC(C)c1ccc(-c2noc(SCC(=O)N3CCCCC3C)n2)cc1 (stereo not given) | inactive: 11.7% | 
7 | Cc1cccc2sc(NNC(=O)c3cc(-c4cccs4)nc4ccccc34)nc12 |  | inconclusive: 39.8 µM [inhibitor, single point]
8 | O=C(NCCCN1CCN(c2ccc(F)cc2)CC1)c1cc2c(Cl)nc3ccccc3c2s1 | inactive: 3.62% | 
9 | O=C(CSc1nnc(-c2ccc(F)cc2)c2ccccc12)Nc1ccccc1Cl |  | active: 15.8 µM
10 | Clc1ccc(CSc2nnc(CN3CCOCC3)n2-c2ccccc2)cc1Cl |  | inconclusive: 31.6 µM [activator, single point]
11 | Cc1cccc(OCCOc2ccc(/C=N/NC(=O)Cc3nnc(N)s3)cc2)c1 |  | active: 5.01 µM
12 | Cc1ccc(CO/N=C/C2=C(Cl)c3ccccc3CC2)cc1 | inactive: -16.2% | 
13 | COc1cc2cc(C(c3nnnn3C3CCCC3)N3CCCCCC3)c(=O)[nH]c2cc1OC (stereo not given) |  | inconclusive: 39.8 µM [activator, single point]
14 | CC(C)CNC(=O)c1ccccc1NC(=O)/C=C/c1cccc([N+](=O)[O-])c1 | inactive: -14% | 
15 | Cc1ccc(Cc2cnc(NC(=O)CN3CCOCC3)s2)cc1Cl |  | inconclusive: 31.6 µM [activator, single point]
16 | COc1cccc2sc(NC(=O)c3ccc(S(=O)(=O)N4CCC(C)CC4)cc3)nc12 |  | inconclusive: 3.16 µM [inhibitor, single point]
17 | O=C(CN1C(=O)c2cccc3cccc1c23)N1CCN(c2cccc(Cl)c2)CC1 |  | inconclusive: 15.8 µM [inhibitor, partial curve]
18 | O=C(NNC(=O)c1cc2cc3ccccc3nc2s1)c1ccc(F)cc1 |  | active: 10 µM
19 | Cc1cc(C)cc(NC(=O)c2ccc3oc(=O)c(S(=O)(=O)c4ccc(F)cc4)cc3c2)c1 | inactive: -4.38% | 
20 | O=C(Nc1cccc(S(=O)(=O)NC2=NCCCCC2)c1)c1cc(-c2ccc(Cl)cc2)nc2ccccc12 |  | inconclusive: 39.8 µM [inhibitor, single point]
21 | COc1ccc(N2CCN(C(=O)C3CCN(S(=O)(=O)c4cccc5nonc45)CC3)CC2)cc1 |  | inconclusive: 25.1 µM [activator, partial curve]
22 | Cc1ccc(S(=O)(=O)c2nnn3c2nc(NCc2ccc4c(c2)OCO4)c2sccc23)cc1 | inactive: 9.33% | 

Row | SMILES | max response, negative = inhibition | Potency
23 | Cc1cc(C)cc(-n2nnnc2SCC(=O)Nc2nc(-c3ccc(F)cc3)cs2)c1 |  | active: 25.1 µM
24 | N#C/C(=C\c1ccc(-c2ccccc2)cc1)c1nc(-c2ccco2)cs1 |  | inconclusive: 39.8 µM [inhibitor, single point]
25 | O=C(c1cnc2n(c1=O)CCS2)N1CCN(C(c2ccccc2)c2ccc(Cl)cc2)CC1 (stereo not given) |  | inconclusive: 31.6 µM [activator, single point]
26 | N#Cc1cccc(NC(=O)N2CCCC3(CCN(C(=O)c4cc(C(F)(F)F)cc(C(F)(F)F)c4)CC3)C2)c1 |  | inconclusive: 39.8 µM [activator, single point]
27 | CC(C)Cc1nn2c(=O)cc(COC(=O)CNC(=O)c3ccc(C(C)(C)C)cc3)nc2s1 |  | inconclusive: 25.1 µM [activator, single point]
28 | COc1ccccc1C(=O)Nc1cccc(C(=O)OCc2cc(=O)n3nc(C4CC4)sc3n2)c1 | inactive: 5.1% | 
29 | COc1ccc(C(=O)NNC(=S)NC(=O)c2ccccc2[N+](=O)[O-])cc1 | inactive: -1.55% | 
30 | O=C(Nc1ccc(OC(F)(F)F)cc1)C(Cc1ccccc1)NS(=O)(=O)c1cccc2nsnc12 (stereo not given) | inactive: 7.2% | 
31 | Nc1ccc(Oc2ccc3nc(-c4ccccc4)c(-c4ccc([N+](=O)[O-])cc4)nc3c2)cc1 |  | active: 15.8 µM
32 | CCN(CC)S(=O)(=O)c1ccc2nc(COC(=O)c3n[nH]c4ccccc34)[nH]c2c1 |  | inconclusive: 31.6 µM [inhibitor, single point]
33 | COc1cccc(-n2sc3c(c2=S)-c2cc(OC)ccc2NC3(C)C)c1 |  | inconclusive: 39.8 µM [inhibitor, single point]
34 | COC(=O)c1ccc(C(NC(=O)OCc2ccccc2)/C(=C/[C@@H](C)C(=O)NCc2nc3ccccc3n2C)c2cccnc2)cc1 (stereo not given in full) |  | inconclusive: 39.8 µM [activator, single point]
35 | COc1ccc(N=C2SC(C(N)=O)CC(=O)N2CCc2ccc(OC)c(OC)c2)cc1 (stereo not given) |  | inconclusive: 39.8 µM [activator, single point]
36 | COc1cccc(N2CCN(C(=O)c3cc4c(s3)-c3c(C)cccc3OC4)CC2)c1 |  | inconclusive: 39.8 µM [inhibitor, single point]
37 | COCC(=O)N1CCC2(CC1)CN(c1ccc(-c3ccccc3)cc1)C2 |  | inconclusive: 31.6 µM [activator, single point]
38 | O=C(NCCN1C(=O)S/C(=C\c2ccc(F)cc2)C1=O)c1cccc(S(=O)(=O)N2CCOCC2)c1 |  | inconclusive: 39.8 µM [activator, single point]
39 | Cc1nc(-c2cccc(F)c2)sc1CCNC(=O)c1c(F)cccc1Cl | inactive: -17.7% | 
40 | Cc1nn(CCC(N)=O)c2nc(-c3cccs3)cc(C(F)(F)F)c12 |  | inconclusive: 25.1 µM [activator, partial curve]
41 | CCN(C(=O)CSc1nc2cc(C(F)(F)F)ccc2n1Cc1ccccc1)C1CCS(=O)(=O)C1 (stereo not given) |  | inconclusive: 25.1 µM [activator, single point]
42 | COc1ccc(C(CCN(Cc2ccc(OC)c(OC)c2)C(C)=O)c2ccccc2)cc1 (stereo not given) |  | inconclusive: 39.8 µM [activator, single point]
43 | CCc1ccc(C(=O)COC(=O)C(Cc2c[nH]c3ccccc23)NC(=O)c2ccc(CC)cc2)cc1 (stereo not given) |  | inconclusive: 39.8 µM [inhibitor, single point]
44 | O=C1CSC2(C(=O)N(Cc3ccccc3F)c3ccccc32)N1c1cccc(C(F)(F)F)c1 (stereo not given) | inactive: -4.86% | 

Row | SMILES | max response, negative = inhibition | Potency
45 | CC(C)c1ccc(NC(=O)CSC2=Nc3ccccc3C3=NC(CC(=O)NCc4cccs4)C(=O)N23)cc1 (stereo not given) |  | inconclusive: 39.8 µM [activator, single point]
46 | Brc1ccc(C2CC(c3ccccc3)=Nc3ccccc3N2)cc1 (stereo not given) |  | inconclusive: 25.1 µM [inhibitor, single point]
47 | CC(C)Oc1ccc(C(=O)N2CCC(c3nc4ccccc4o3)CC2)cc1 | inactive: 12.8% | 
48 | N=C1C(c2nc(-c3ccc(F)cc3)cs2)=C(O)CN1Cc1ccc(Cl)cc1 |  | inconclusive: 39.8 µM [inhibitor, single point]
49 | CCc1ccc(NC(=O)C(C)Oc2nnc(-c3cccs3)c(-c3cccs3)n2)cc1 (stereo not given) |  | active: 20 µM
50 | Cc1ccc(NC(=O)Cn2nnc(C(=O)Nc3ccc(C)c(C)c3)c2N)cc1 |  | inconclusive: 39.8 µM [inhibitor, single point]
51 | O=S(=O)(c1cc(Cl)ccc1Cl)N1CC2CCCN2c2ccc(C(F)(F)F)cc21 (stereo not given) |  | inconclusive: 31.6 µM [inhibitor, single point]
52 | CC(NC(=O)C1CCN(S(=O)(=O)c2ccc(F)cc2)CC1)c1ccccc1 (stereo not given) | inactive: 1.38% | 
53 | CCc1ccccc1NC(=O)CSc1nnc([C@@H](N)Cc2c[nH]c3ccccc23)o1 |  | active: 10 µM
54 | Cc1ccc(C)c(CSc2nc3ccncc3n2CC(=O)Nc2ccc(C)c(C)c2)c1 |  | inconclusive: 39.8 µM [inhibitor, single point]
55 | COc1cc(/C=C/c2nc(N)nc(-c3ccccc3O)n2)cc(OC)c1OC |  | inconclusive: 31.6 µM [activator, single point]
56 | O=C(OC1Cc2c(O)cc(O)cc2OC1c1cc(O)c(O)c(O)c1)c1cc(O)c(O)c(O)c1 (stereo not given) | inactive: -16.1% | 
57 | CCc1cc(-c2n[nH]c(C)c2-c2ccc3c(c2)OCCO3)c(O)cc1O | inactive: 3.07% | 
58 | CCOc1cc(C2C(C(=O)OC)=C(C)NC3=C2C(=O)c2ccccc23)ccc1OC (stereo not given) |  | inconclusive: 39.8 µM [activator, single point]
59 | Cc1ccc(S(=O)(=O)c2cnc(SCC(=O)Nc3ccc4c(c3)OCCO4)[nH]c2=O)cc1Cl |  | inconclusive: 39.8 µM [activator, single point]
60 | N#C/C(=C/c1ccc(OCc2ccccc2)cc1)C(=O)NC1CCCCC1 |  | inconclusive: 31.6 µM [inhibitor, single point]
61 | Brc1ccccc1C1CC(c2ccccc2)=Nc2ccccc2N1 (stereo not given) |  | inconclusive: 39.8 µM [inhibitor, single point]
62 | CCCCC/C=C\C\C=C/C=C/C=C/[C@@H](SCC(NC(=O)CCC(N)C(=O)O)C(=O)NCC(=O)O)[C@@H](O)CCCC(=O)O (stereo not given in full) | inactive: -3.11% | 
63 | CCC(Sc1nc2ccc(N)cc2s1)C(=O)Nc1nccs1 (stereo not given) |  | inconclusive: 31.6 µM [inhibitor, single point]
64 | COc1ccc(C2=C(C(C)=O)Sc3nnc(-c4ccc(Cl)cc4)n3N2C(C)=O)cc1OC | inactive: 1.2% | 
65 | O=C(Cn1c(=O)n(Cc2ccco2)c(=O)c2oc3ccccc3c21)Nc1ccc(F)c(Cl)c1 | inactive: -8.08% | 
